Lines with a small IC50 respond at low doses; where the fit passes the top or lowest dose, that dose stands as a limit. For AUC the same curve is integrated over the 256-fold range of doses and scaled to a fraction; values near 1 show little effect. A top dose marked as inferred is not printed in the source and was worked back from the curve model. For some of these results: Where an entry number is given, a second screen of the drug exists; the two often differ. Bounds are passed on as bounds.

Compound in one assay: O=C(c1cc(Cc2n[nH]c(=O)c3ccccc23)ccc1F)N1CCN(C(=O)C2CC2)CC1 [Olaparib]
Description: Viability of human cancer cell lines after 72 h of drug (GDSC screen). The note with it: top dose 5 µM; screen: GDSC drug entry 1017; top dose inferred. Here is the method:
(§1)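 Human cancer cell lines in 384-well plates, medium with 10% serum, drug for 72 h over a 256-fold dose range (nine 2-fold or five 4-fold steps up to the top dose). Adherent lines were fixed and stained with the nucleic acid dye Syto60, suspension lines read with resazurin; signal relative to control wells, capped at 0 and 100%. One two-parameter sigmoid per drug and line, fitted in a mixed model over all curves with the slope shared within a line.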
For the cell line “JURL-MK1 (chronic myeloid leukaemia, suspension)”, the AUC was 0.901 and the IC50 was > 5000 nM.

Consider NB12 (neuroblastoma, adherent), for which the AUC was 0.958 and the IC50 is > 5000 nM.

Regarding “NCI-H1975 (lung adenocarcinoma, adherent)”, the AUC is 0.983 and the IC50 is > 5000 nM.

With “NCI-H2227 (small cell lung carcinoma, semi-adherent)”, the AUC turned out to be 0.968 and the IC50 is > 5000 nM.

As to RC-K8 (B-cell lymphoma, suspension), the AUC is 0.99 and the IC50 was > 5000 nM.

On to “SHP-77 (small cell lung carcinoma, semi-adherent)”, for which the AUC was found to be 0.991 and the IC50 is > 5000 nM.

For the cell line SNU-C2B (large intestine, adherent), the AUC was 0.964 and the IC50 was > 5000 nM.

In the case of SW982 (soft tissue, adherent), the AUC stood at 0.883 and the half-maximal inhibitory concentration (IC50) was > 5000 nM.

Take TK (B-cell lymphoma, suspension): the AUC turned out to be 0.99 and the IC50 is > 5000 nM.

For VAL (B-cell lymphoma, suspension), the AUC came to 0.985 and the IC50 is > 5000 nM.

The same assay, now with this note: top dose 10 µM; screen: GDSC drug entry 1495.
As for D-392MG (glioma, adherent), the AUC was 0.933 and the IC50 is > 10000 nM.

In the case of D-542MG (glioma, adherent), the AUC is 0.982 and the IC50 is > 10000 nM.

As for “HEL (acute myeloid leukaemia, semi-adherent)”, the AUC is 0.983 and the IC50 was > 10000 nM.

“JURL-MK1 (chronic myeloid leukaemia, suspension)”: the AUC came out at 0.961 and the IC50 is > 10000 nM.

On to NB12 (neuroblastoma, adherent), for which the AUC worked out at 0.942 and the IC50 was > 10000 nM.

As for “NCI-H1975 (lung adenocarcinoma, adherent)”, the AUC is 0.968 and the concentration for half-maximal inhibition (IC50) is > 10000 nM.

For the cell line “NCI-H2227 (small cell lung carcinoma, semi-adherent)”, the AUC was found to be 0.95 and the IC50 is > 10000 nM.

Take RC-K8 (B-cell lymphoma, suspension): the AUC worked out at 0.981 and the IC50 was > 10000 nM.

With “SHP-77 (small cell lung carcinoma, semi-adherent)”, the AUC was 0.985 and the IC50 was > 10000 nM.

As to SNU-C2B (large intestine, adherent), the AUC was 0.839 and the IC50 was > 10000 nM.

Consider SW982 (soft tissue, adherent), for which the AUC is 0.858 and the concentration for half-maximal inhibition (IC50) was 8580 nM.

As to TK (B-cell lymphoma, suspension), the AUC was determined as 0.983 and the half-maximal inhibitory concentration (IC50) is > 10000 nM.

In the case of VAL (B-cell lymphoma, suspension), the AUC worked out at 0.977 and the IC50 is > 10000 nM.

Compound in another assay: CC(C)=CC[C@@H](O)C1=CC(=O)c2c(O)ccc(O)c2C1=O [Shikonin]
Described as above. The note with it: top dose 16 µM; top dose inferred. Here is the method:
as §1
For the cell line BC-3 (B-cell lymphoma, suspension), the AUC came to 0.424 and the IC50 was 636 nM.

For the cell line CAL-148 (breast, suspension), the AUC turned out to be 0.439 and the IC50 is 693 nM.

For the cell line D-392MG (glioma, adherent), the AUC is 0.508 and the IC50 was determined as 1060 nM.

Turning to D-542MG (glioma, adherent), the AUC was determined as 0.455 and the IC50 is 731 nM.

As for ECC12 (stomach, suspension), the AUC was 0.656 and the IC50 amounted to 3050 nM.

As for HCC1599 (breast, suspension), the AUC was found to be 0.357 and the IC50 is 379 nM.

For the cell line HCC2998 (large intestine, adherent), the AUC stood at 0.783 and the IC50 was found to be 6560 nM.

As for “HCC-33 (small cell lung carcinoma, adherent)”, the AUC was 0.453 and the IC50 came out at 743 nM.

For the cell line “HEL (acute myeloid leukaemia, semi-adherent)”, the AUC worked out at 0.51 and the concentration for half-maximal inhibition (IC50) was 1060 nM.

For the cell line “JURL-MK1 (chronic myeloid leukaemia, suspension)”, the AUC is 0.622 and the IC50 turned out to be 2170 nM.

In the case of KP-N-YS (neuroblastoma, adherent), the AUC came to 0.366 and the IC50 is 404 nM.

Regarding NB12 (neuroblastoma, adherent), the AUC came out at 0.447 and the IC50 came to 682 nM.

As to “NCI-H748 (small cell lung carcinoma, suspension)”, the AUC was found to be 0.54 and the IC50 was 1330 nM.

Consider “NCI-H1975 (lung adenocarcinoma, adherent)”, for which the AUC is 0.308 and the IC50 was 264 nM.

In the case of “NCI-H2171 (small cell lung carcinoma, suspension)”, the AUC is 0.442 and the IC50 came out at 709 nM.

In the case of “NCI-H2196 (small cell lung carcinoma, adherent)”, the AUC came out at 0.475 and the IC50 stood at 854 nM.

For “NCI-H2227 (small cell lung carcinoma, semi-adherent)”, the AUC is 0.708 and the IC50 is 4220 nM.

NK-92MI (lymphoid neoplasm, suspension): the AUC amounted to 0.257 and the IC50 is 213 nM.

In the case of RC-K8 (B-cell lymphoma, suspension), the AUC was determined as 0.557 and the IC50 came out at 1400 nM.

For the cell line SCC-3 (B-cell lymphoma, suspension), the AUC stood at 0.334 and the half-maximal inhibitory concentration (IC50) was found to be 397 nM.

On to “SHP-77 (small cell lung carcinoma, semi-adherent)”, for which the AUC was 0.446 and the IC50 was 724 nM.

For the cell line “SIG-M5 (acute myeloid leukaemia, suspension)”, the AUC came out at 0.212 and the half-inhibitory concentration (IC50) was 192 nM.

In the case of SNU-C2B (large intestine, adherent), the AUC turned out to be 0.777 and the IC50 was found to be 8630 nM.

In the case of “SU-DHL-1 (anaplastic large cell lymphoma, suspension)”, the AUC came to 0.471 and the IC50 was 854 nM.

In the case of SW982 (soft tissue, adherent), the AUC was 0.143 and the IC50 was determined as 73.1 nM.

For “TALL-1 (T-cell lymphoblastic leukaemia, suspension)”, the AUC came to 0.842 and the IC50 was determined as 10400 nM.

Take TE-441-T (rhabdomyosarcoma, adherent): the AUC amounted to 0.155 and the IC50 came out at 91.7 nM.

Take TK (B-cell lymphoma, suspension): the AUC stood at 0.415 and the IC50 is 598 nM.

UACC-812 (breast, adherent): the AUC was 0.726 and the IC50 worked out at 4280 nM.

Regarding VAL (B-cell lymphoma, suspension), the AUC amounted to 0.404 and the IC50 was 546 nM.

Compound in a further assay: O=C1NC(=O)c2c1c(-c1ccccc1Cl)cc1[nH]c3ccc(O)cc3c21 [Wee1 inhibitor 681640]
Described as above. The note with it: top dose 2 µM; top dose inferred. Here is the method: as §1
Turning to D-392MG (glioma, adherent), the AUC amounted to 0.898 and the IC50 is > 2000 nM.

D-542MG (glioma, adherent): the AUC came out at 0.984 and the IC50 was > 2000 nM.

Consider “JURL-MK1 (chronic myeloid leukaemia, suspension)”, for which the AUC turned out to be 0.889 and the IC50 was > 2000 nM.

Consider NB12 (neuroblastoma, adherent), for which the AUC worked out at 0.953 and the half-inhibitory concentration (IC50) is > 2000 nM.

With “NCI-H1975 (lung adenocarcinoma, adherent)”, the AUC was 0.971 and the 50% inhibitory concentration (IC50) was > 2000 nM.

“NCI-H2227 (small cell lung carcinoma, semi-adherent)”: the AUC was found to be 0.985 and the IC50 is > 2000 nM.

(Values after the supplement of paper PMC4967469.)
